Source: the supplement of paper PMC4967469
By IC50 is meant the dose at which the fit gives 50% viability; where the fit passes the top or lowest dose, that dose stands as a limit. For AUC the same curve is integrated over the 256-fold range of doses and scaled to a fraction; it is 1 without any effect and falls as sensitivity rises. For part of these data: Any top dose called inferred was calculated from the reported fits.

Legend:
Test in all cases: Viability of human cancer cell lines after 72 h of drug (GDSC screen)
Trametinib = compound: CC(=O)Nc1cccc(-n2c(=O)n(C3CC3)c(=O)c3c(Nc4ccc(I)cc4F)n(C)c(=O)c(C)c32)c1 [Trametinib]; conditions: top dose 1 µM
Description: (§1)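 Human cancer cell lines in 384-well plates, medium with 10% serum, drug for 72 h over a 256-fold dose range (nine 2-fold or five 4-fold steps up to the top dose). Adherent lines were fixed and stained with the nucleic acid dye Syto60, suspension lines read with resazurin; signal relative to control wells, capped at 0 and 100%. One two-parameter sigmoid per drug and line, fitted in a mixed model over all curves with the slope shared within a line.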

PF-4708671 = compound: CCc1cncnc1N1CCN(Cc2nc3ccc(C(F)(F)F)cc3[nH]2)CC1 [PF-4708671]; conditions: top dose 10 µM; top dose inferred
Description: as §1

KIN001-244 = compound: O=C(NC(COc1ccc2[nH]c(=O)[nH]c2c1)c1ccccc1)c1cccn(Cc2ccc(F)c(F)c2)c1=O [KIN001-244]; conditions: top dose 20 µM; top dose inferred
Description: as §1

I-BET-762 = compound: CCNC(=O)C[C@@H]1N=C(c2ccc(Cl)cc2)c2cc(OC)ccc2-n2c(C)nnc21 [I-BET-762]; conditions: top dose 20 µM; top dose inferred
Description: as §1

AV-951 = compound: COc1cc2nccc(Oc3ccc(NC(=O)Nc4cc(C)on4)c(Cl)c3)c2cc1OC [AV-951]; conditions: top dose 0.128 µM; top dose inferred
Description: as §1

HG-6-64-1 = compound: CCN1CCN(Cc2ccc(NC(=O)c3ccc(C)c(/C=C/c4cnc5[nH]ccc5c4OC)c3)cc2C(F)(F)F)CC1 [HG-6-64-1]; conditions: top dose 5.12 µM; top dose inferred
Description: as §1

SK-MEL-30 (melanoma, adherent)
AUC (Trametinib): 0.098
IC50 (Trametinib): < 3.91 nM
AUC (PF-4708671): 0.982
IC50 (PF-4708671): > 10 µM
AUC (KIN001-244): 0.889
IC50 (KIN001-244): > 20 µM
AUC (I-BET-762): 0.864
IC50 (I-BET-762): 19.2 µM
AUC (AV-951): 0.981
IC50 (AV-951): > 128 nM
AUC (HG-6-64-1): 0.777
IC50 (HG-6-64-1): 2170 nM

SK-MES-1 (lung squamous cell carcinoma, adherent)
AUC (Trametinib): 0.428
IC50 (Trametinib): 39.1 nM
AUC (PF-4708671): 0.959
IC50 (PF-4708671): > 10 µM
AUC (KIN001-244): 0.914
IC50 (KIN001-244): > 20 µM
AUC (I-BET-762): 0.94
IC50 (I-BET-762): > 20 µM
AUC (AV-951): 0.982
IC50 (AV-951): > 128 nM
AUC (HG-6-64-1): 0.656
IC50 (HG-6-64-1): 903 nM

SK-N-AS (neuroblastoma, adherent)
AUC (Trametinib): 0.364
IC50 (Trametinib): 24.7 nM
AUC (PF-4708671): 0.954
IC50 (PF-4708671): > 10 µM
AUC (KIN001-244): 0.929
IC50 (KIN001-244): > 20 µM
AUC (I-BET-762): 0.724
IC50 (I-BET-762): 6.06 µM
AUC (AV-951): 0.982
IC50 (AV-951): > 128 nM
AUC (HG-6-64-1): 0.983
IC50 (HG-6-64-1): > 5120 nM

SK-N-SH (neuroblastoma, adherent)
AUC (Trametinib): 0.768
IC50 (Trametinib): 372 nM
AUC (PF-4708671): 0.942
IC50 (PF-4708671): > 10 µM
AUC (KIN001-244): 0.853
IC50 (KIN001-244): 15.4 µM
AUC (I-BET-762): 0.922
IC50 (I-BET-762): > 20 µM
AUC (AV-951): 0.987
IC50 (AV-951): > 128 nM
AUC (HG-6-64-1): 0.476
IC50 (HG-6-64-1): 275 nM

SKG-IIIa (cervix, adherent)
AUC (Trametinib): 0.901
IC50 (Trametinib): > 1000 nM
AUC (PF-4708671): 0.957
IC50 (PF-4708671): > 10 µM
AUC (KIN001-244): 0.981
IC50 (KIN001-244): > 20 µM
AUC (I-BET-762): 0.983
IC50 (I-BET-762): > 20 µM
AUC (AV-951): 0.983
IC50 (AV-951): > 128 nM
AUC (HG-6-64-1): 0.897
IC50 (HG-6-64-1): > 5120 nM

SKN (uterus, adherent)
AUC (Trametinib): 0.679
IC50 (Trametinib): 222 nM
AUC (PF-4708671): 0.944
IC50 (PF-4708671): > 10 µM
AUC (KIN001-244): 0.811
IC50 (KIN001-244): 13.5 µM
AUC (I-BET-762): 0.826
IC50 (I-BET-762): 15.7 µM
AUC (AV-951): 0.958
IC50 (AV-951): > 128 nM
AUC (HG-6-64-1): 0.79
IC50 (HG-6-64-1): 2830 nM

SKN-3 (head and neck, adherent)
AUC (Trametinib): 0.692
IC50 (Trametinib): 240 nM
AUC (PF-4708671): 0.978
IC50 (PF-4708671): > 10 µM
AUC (KIN001-244): 0.893
IC50 (KIN001-244): > 20 µM
AUC (I-BET-762): 0.972
IC50 (I-BET-762): > 20 µM
AUC (AV-951): 0.981
IC50 (AV-951): > 128 nM
AUC (HG-6-64-1): 0.968
IC50 (HG-6-64-1): > 5120 nM

SN12C (kidney, adherent)
AUC (Trametinib): 0.622
IC50 (Trametinib): 142 nM
AUC (PF-4708671): 0.974
IC50 (PF-4708671): > 10 µM
AUC (KIN001-244): 0.977
IC50 (KIN001-244): > 20 µM
AUC (I-BET-762): 0.974
IC50 (I-BET-762): > 20 µM
AUC (AV-951): 0.986
IC50 (AV-951): > 128 nM
AUC (HG-6-64-1): 0.783
IC50 (HG-6-64-1): 2440 nM

SNG-M (endometrium, adherent)
AUC (Trametinib): 0.419
IC50 (Trametinib): 37.8 nM
AUC (PF-4708671): 0.958
IC50 (PF-4708671): > 10 µM
AUC (KIN001-244): 0.849
IC50 (KIN001-244): 14.5 µM
AUC (I-BET-762): 0.969
IC50 (I-BET-762): > 20 µM
AUC (AV-951): 0.986
IC50 (AV-951): > 128 nM
AUC (HG-6-64-1): 0.448
IC50 (HG-6-64-1): 232 nM
